Results from the supplement of paper PMC8728848.
This is one part of the list.

Tests used:
Experiment in all cases: glycan array binding signal (z-score within array); higher = stronger binding
Conditions in all cases: glycan notation: IUPAC condensed, linker removed
[1] = target: Neu5Ac(a2-3)Gal(b1-4)GlcNAc(b1-6)GalNAc
Procedure, shortened: (§1)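 From the Consortium for Functional Glycomics database, 3228 arrays were curated, keeping only those whose protein sequence was available. Binding is given as a within-array Z-score averaged across arrays sharing a protein sequence and across linkers. Negative Z-scores can be read as non-binding.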

[2] = target: Neu5Ac(a2-3)Gal(b1-4)GlcNAc(b1-6)[Gal(b1-3)]GalNAc
Procedure, shortened: as §1

[3] = target: Neu5Ac(a2-3)Gal(b1-4)GlcNAc(b1-6)[Neu5Ac(a2-3)Gal(b1-3)]GalNAc
Procedure, shortened: as §1

[4] = target: Neu5Ac(a2-3)Gal(b1-4)GlcNAc6S
Procedure, shortened: as §1

[5] = target: Neu5Ac(a2-3)Gal(b1-4)[Fuc(a1-3)]GlcNAc
Procedure, shortened: as §1

[6] = target: Neu5Ac(a2-3)Gal(b1-4)[Fuc(a1-3)]GlcNAc(b1-2)Man
Procedure, shortened: as §1

[7] = target: Neu5Ac(a2-3)Gal(b1-4)[Fuc(a1-3)]GlcNAc(b1-3)Gal
Procedure, shortened: as §1

[8] = target: Neu5Ac(a2-3)Gal(b1-4)[Fuc(a1-3)]GlcNAc(b1-3)Gal(b1-4)GlcNAc
Procedure, shortened: as §1

[9] = target: Neu5Ac(a2-3)Gal(b1-4)[Fuc(a1-3)]GlcNAc(b1-3)Gal(b1-4)[Fuc(a1-3)]GlcNAc(b1-3)Gal(b1-4)[Fuc(a1-3)]GlcNAc
Procedure, shortened: as §1

[10] = target: Neu5Ac(a2-3)Gal(b1-4)[Fuc(a1-3)]GlcNAc(b1-3)GalNAc
Procedure, shortened: as §1

[11] = target: Neu5Ac(a2-3)Gal(b1-4)[Fuc(a1-3)]GlcNAc(b1-6)[Gal(b1-3)]GalNAc
Procedure, shortened: as §1

[12] = target: Neu5Ac(a2-3)Gal(b1-4)[Fuc(a1-3)]GlcNAc(b1-6)[Neu5Ac(a2-3)Gal(b1-3)]GalNAc
Procedure, shortened: as §1

[13] = target: Neu5Ac(a2-3)Gal(b1-4)[Fuc(a1-3)]GlcNAc6S
Procedure, shortened: as §1

[14] = target: Neu5Ac(a2-3)Gal6S(b1-4)GlcNAc
Procedure, shortened: as §1

[15] = target: Neu5Ac(a2-3)Gal6S(b1-4)[Fuc(a1-3)]GlcNAc
Procedure, shortened: as §1

Neu5Ac(a2-3)GalNAc = target: Neu5Ac(a2-3)GalNAc
Procedure, shortened: as §1

[16] = target: Neu5Ac(a2-3)GalNAc(b1-4)GlcNAc
Procedure, shortened: as §1

[17] = target: Neu5Ac(a2-3)[GalNAc(b1-4)]Gal(b1-4)Glc
Procedure, shortened: as §1

[18] = target: Neu5Ac(a2-3)[GalNAc(b1-4)]Gal(b1-4)GlcNAc
Procedure, shortened: as §1

[19] = target: Neu5Ac(a2-3)[GalNAc(b1-4)]Gal(b1-4)GlcNAc(b1-3)GalNAc
Procedure, shortened: as §1

[20] = target: Neu5Ac(a2-3)[Neu5Ac(a2-6)]GalNAc
Procedure, shortened: as §1

Neu5Ac(a2-6)Gal = target: Neu5Ac(a2-6)Gal
Procedure, shortened: as §1

[21] = target: Neu5Ac(a2-6)Gal(b1-3)GlcNAc(b1-3)[Gal(b1-4)GlcNAc(b1-6)]Gal(b1-4)Glc
Procedure, shortened: as §1

Neu5Ac(a2-6)Gal(b1-4)Glc = target: Neu5Ac(a2-6)Gal(b1-4)Glc
Procedure, shortened: as §1

[22] = target: Neu5Ac(a2-6)Gal(b1-4)GlcNAc
Procedure, shortened: as §1

[23] = target: Neu5Ac(a2-6)Gal(b1-4)GlcNAc(b1-2)Man
Procedure, shortened: as §1

[24] = target: Neu5Ac(a2-6)Gal(b1-4)GlcNAc(b1-2)Man(a1-3)Man(b1-4)GlcNAc(b1-4)GlcNAc
Procedure, shortened: as §1

[25] = target: Neu5Ac(a2-6)Gal(b1-4)GlcNAc(b1-2)Man(a1-3)[Gal(b1-4)GlcNAc(b1-2)Man(a1-6)]Man(b1-4)GlcNAc(b1-4)GlcNAc
Procedure, shortened: as §1

[26] = target: Neu5Ac(a2-6)Gal(b1-4)GlcNAc(b1-2)Man(a1-3)[GlcNAc(b1-4)][Neu5Ac(a2-6)Gal(b1-4)GlcNAc(b1-2)Man(a1-6)]Man(b1-4)GlcNAc(b1-4)GlcNAc
Procedure, shortened: as §1

[27] = target: Neu5Ac(a2-6)Gal(b1-4)GlcNAc(b1-2)Man(a1-3)[Man(a1-6)]Man(b1-4)GlcNAc(b1-4)GlcNAc
Procedure, shortened: as §1

B1: CBM40 CPF071 (Clostridium perfringens) (protein)
chain: MAHHHHHHVGTGSNDDDDKSPDPMLSSLGEYKDINLESSNASNITYDLEKYKNLDEGTIVVRFNSKDSKIQSLLGISNSKTKNGYFNFYVTNSRVGFELRNQKNEGNTQNGTENLVHMYKDVALNDGDNTVALKIEKNKGYKLFLNGKMIKEVKDTNTKFLNNIENLDSAFIGKTNRYGQSNEYNFKGNIGFMNIYNEPLGDDYLLSKTGETK
- glycan array binding signal (z-score) [1]: -0.131
- glycan array binding signal (z-score) [2]: 0.911
- glycan array binding signal (z-score) [3]: 0.122
- glycan array binding signal (z-score) [4]: 5.07
- glycan array binding signal (z-score) [5]: 0.895
- glycan array binding signal (z-score) [6]: -0.072
- glycan array binding signal (z-score) [7]: 1.97
- glycan array binding signal (z-score) [8]: 0.818
- glycan array binding signal (z-score) [9]: 0.223
- glycan array binding signal (z-score) [10]: 0.146
- glycan array binding signal (z-score) [11]: -0.129
- glycan array binding signal (z-score) [12]: 0.036
- glycan array binding signal (z-score) [13]: 1.96
- glycan array binding signal (z-score) [14]: 16.3
- glycan array binding signal (z-score) [15]: 5.09
- glycan array binding signal (z-score) (Neu5Ac(a2-3)GalNAc): 0.204
- glycan array binding signal (z-score) [16]: 0.216
- glycan array binding signal (z-score) [17]: -0.374
- glycan array binding signal (z-score) [18]: 0.195
- glycan array binding signal (z-score) [19]: -0.525
- glycan array binding signal (z-score) [20]: -0.542
- glycan array binding signal (z-score) (Neu5Ac(a2-6)Gal): -0.173
- glycan array binding signal (z-score) [21]: -0.477
- glycan array binding signal (z-score) (Neu5Ac(a2-6)Gal(b1-4)Glc): 0.107
- glycan array binding signal (z-score) [22]: 0.039
- glycan array binding signal (z-score) [23]: -0.5
- glycan array binding signal (z-score) [24]: -0.159
- glycan array binding signal (z-score) [25]: 0.415
- glycan array binding signal (z-score) [26]: -0.407
- glycan array binding signal (z-score) [27]: -0.544
